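Assay format: 96-well plates, 48-hour exposure. At the GI50, growth is halved.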 Calls of active or inactive are those of the source. Cut-off read from the data, not from the text of the source: active = GI50 up to about 1.1 µM and inactive = higher.
Tested on: NCI-H322M
Test: inhibition of tumour cell growth, NCI panel, 48 h

Structure (SMILES) | GI50
CCOC(=O)C1=C(C)N(NC(N)=O)C(C)(O)C12CCOC2=O (centres undefined) | inactive: > 100 µM
COc1cc(C)c(C(=O)/C=C/c2cc(OC)c(O)c(OC)c2)cc1O | inactive: 21.2 µM
CCN(CC)CCNc1c2ccccc2nc2cccc([N+](=O)[O-])c12 | active: 0.0131 µM
COc1c(OC(C)=O)c(OC(C)=O)cc2c1-c1ccc(OC)c(=O)cc1C(NC(C)=O)CC2 (centres undefined) | active: 0.42 µM
CN(C)c1ccc(/N=C2/C=CC(=C(C#N)C#N)c3ccccc32)cc1 | active: 0.434 µM
NC(=O)c1ncn2c(=O)n(CCl)nnc12 | inactive: > 100 µM
Nc1ccc2ncc(Nc3ccc(Cl)c(Cl)c3)nc2c1 | inactive: 27 µM
COC(=O)CC(=O)NCC1=CCC(=O)CC1 | inactive: > 100 µM
COc1cc(/C=C/C(=O)C2(C(=O)/C=C/c3cc(OC)c(OC)c(OC)c3)CCCCC2)cc(OC)c1OC | inactive: > 100 µM
CC1CC2(CCC1OCc1ccccc1)OCCO2 (centres undefined) | inactive: > 100 µM
NCCCNCc1c2ccccc2c(CNCCCN)c2ccccc12 | inactive: 25.1 µM
O=c1/c(=C/c2ccc([N+](=O)[O-])o2)sc2n1[C@@H](c1ccc(Cl)cc1)C=C(c1cc(F)c(Cl)cc1Cl)N=2 | inactive: 14.3 µM
CN(/N=C/c1cccc2cccnc12)c1ccc([N+](=O)[O-])cc1[N+](=O)[O-] | inactive: 43.1 µM
O=C1CC(C(=O)O)Cc2c(Br)ccc(O)c21 (centres undefined) | inactive: > 100 µM
O=C(NC1C=Nc2ccccc2NC1=O)c1ccccc1Cl (centres undefined) | inactive: > 100 µM
O=c1c2ccccc2sc2ccccc12 | inactive: > 100 µM
O=c1[nH]nc(-c2ccccc2)n1Nc1ccccc1 | inactive: > 100 µM
OC(Cn1cncn1)(Cn1cncn1)c1ccc(Cl)cc1Cl | inactive: > 100 µM
OC1CCC(C2C3CCCCC3C3CCCCC3C2C2CCC(O)CC2)CC1 (centres undefined) | inactive: 4.44 µM
CCc1ccc2c(c1)/C(=C1/Nc3ccccc3/C1=N/O)C(=O)N2 | inactive: 5.47 µM
CCOC(=O)c1cc(Br)c(-c2cc(C)co2)[nH]1 | inactive: > 100 µM
CC(C)(C)c1ccc(NS(=O)(=O)c2ccc(N)cc2)cc1 | inactive: 36.3 µM
CC1CCCP(=O)(c2ccccc2)CC1 (centres undefined) | inactive: > 100 µM

Structure (SMILES) | GI50
CC1OC(n2cc(F)c(=O)[nH]c2=O)C(O[Si](C)(C)C(C)(C)C)C1O[Si](C)(C)C(C)(C)C (centres undefined) | inactive: > 10 µM
CNC(=S)N/N=C/c1ccc([N+](=O)[O-])s1 | inactive: > 10 µM
c1csc(C[N+]23CN4CN(CN(C4)C2)C3)c1 | inactive: > 100 µM
O=c1c(-c2ccc3c(c2)OCO3)coc2c3c(ccc12)OCO3 | inactive: 45 µM
CNC(=O)c1nn[nH]c1Sc1c([N+](=O)[O-])ncn1C | inactive: > 100 µM
COc1cc(C(=O)N(C(=S)OCc2ccccn2)c2ccccc2)cc(OC)c1OC | inactive: > 100 µM
COP(=O)(OC)[C@@](O)(c1ccccc1)[C@@H](O)[C@@H](O)c1ccccc1 | inactive: > 100 µM
CNS(=O)(=O)NNS(=O)(=O)c1ccc(Br)cc1 | inactive: > 100 µM
Cc1cc(C)n(C(=C(C(Cl)=C(Cl)Cl)[N+](=O)[O-])n2nc(C)cc2C)n1 | inactive: 4.1 µM
COc1cccc(C2c3cc4c(cc3OC(NNC(N)=O)C2C)OCO4)c1OC (centres undefined) | inactive: 27.5 µM
CC1/C(=N/O)CC(c2ccccc2)N(N=O)C1c1ccccc1 (centres undefined) | inactive: > 100 µM
O=C(O)c1ccc2c(c1C(=O)O)C(=O)OC2(c1ccc(O)cc1)c1ccc(O)cc1 | inactive: > 100 µM
NC1NCCC(=O)N1CCc1c[nH]c2ccccc12 (centres undefined) | inactive: 26.7 µM
O=[N+]([O-])c1ccc2nc3ccccc3cc2c1 | inactive: 3.52 µM
CC(=O)OC(C)c1cc2c(s1)C(=O)c1sccc1C2=O (centres undefined) | inactive: 1.95 µM
O=C1CC2C(=O)c3ccccc3CC2c2ccccc21 (centres undefined) | inactive: 28 µM
C=CCc1ccc(O)c(-c2cc(C3Oc4c(-c5cc(CC=C)ccc5O)cc(O)cc4[C@@H]3CO)ccc2O)c1 (some centres undefined) | inactive: 30.2 µM
C(CCC[Te][Te]CCCCCCOC1CCCCO1)CCOC1CCCCO1 (centres undefined) | inactive: 17.1 µM
C1=C\SS/C=C\SS/C=C\SS/C=C\SS/1 | inactive: > 100 µM
CCOC(=O)C(=O)CC(=O)C1=C(c2ccccc2OC)CC(c2cccs2)=CC1=O | inactive: 84.5 µM
CC1(C)C(=O)C(O)=CC2C1=CCC1C2(C)C(=O)CC2(C)C(C(C)(O)C(=O)CC(O)C(C)(C)O)C(O)CC12C (centres undefined) | inactive: 24.4 µM
O=C1CC2C(=O)N(Cc3ccccc3)C1C=C2S(=O)(=O)c1ccccc1 (centres undefined) | inactive: > 100 µM
COc1ccc(C2S/C(=C\c3ccc([N+](=O)[O-])cc3)C(=O)N2NC(=O)Cc2ccccc2)cc1 (centres undefined) | inactive: > 100 µM

Structure (SMILES) | GI50
Cc1ccc(SCN2CCCCC2)cc1.O=C(Cl)c1ccc([N+](=O)[O-])cc1 | inactive: 10.5 µM
CC(C)OP(=O)(OC(C)C)C(C(C)C)N(C)/C(F)=N/C(F)(F)F (centres undefined) | inactive: > 100 µM
O=C(NNC(=O)c1ccco1)c1ccco1 | inactive: > 100 µM
Cc1cccc(C(C)(C)C)c1NC(=O)C(=O)Cc1nc2ccccc2s1 | inactive: > 100 µM
Cc1c(O)c(=O)ccn1CCc1ccc(O)cc1 | inactive: 22.2 µM
N#Cc1c(Nc2ccc(F)cc2)[n+]([O-])c2ccc(Cl)cc2[n+]1[O-] | inactive: 55 µM
CCCC(=O)NC(Nc1ccc(S(=O)(=O)Nc2ccc(OC)nn2)cc1)(C(F)(F)F)C(F)(F)F | inactive: > 100 µM
CCOC(=O)/C(C(C)=O)=C(\OC(C)=O)c1ccncc1C(=O)O | inactive: > 100 µM
CCOP(=O)(OCC)/C(C#N)=C(\C)c1ccco1 | inactive: > 10 µM
CCOc1cc(C2SCC(=O)N2c2ccc(Oc3ccc(Cl)cc3)c(Cl)c2)ccc1O (centres undefined) | inactive: 16 µM
N#CC1=C(Cl)NC(Cl)=C(C#N)C1c1c(Cl)cccc1Cl | inactive: > 100 µM
Cc1ccc2c(=O)cc(Cc3csc4ccccc34)[nH]c2n1 | inactive: 57.3 µM
CC1(C)C(=O)c2ccccc2OC1N1CCN(C2Oc3ccccc3C(=O)C2(C)C)CC1 (centres undefined) | inactive: 67 µM
COC(=O)C(C(=O)C(=O)Nc1ccc([N+](=O)[O-])cc1[N+](=O)[O-])c1nc2ccc(Cl)cc2nc1O (centres undefined) | inactive: > 100 µM
CCCNC(=O)CCC(C)[C@H]1CCC2C3C(C[C@H](OC(C)=O)[C@@]21C)[C@@]1(C)CCC2(C[C@H]1C[C@H]3OC(C)=O)OOC1(CCCCC1)OO2 (some centres undefined) | inactive: 12.5 µM
COC(=O)C(CC(=O)c1cc2c(cc1I)OCO2)Cc1cc(OC)c(OC)c(OC)c1I (centres undefined) | inactive: > 100 µM
COc1ccc2c(N=[N+]=[N-])c(-c3ccccc3)c(=O)oc2c1 | inactive: > 100 µM
Cn1cnc(CCc2ccccc2)n1 | inactive: > 100 µM
N#Cc1c(=O)c2cc([N+](=O)[O-])ccc2n2c1[nH]c1ccccc12 | inactive: 3.66 µM
O=C(c1ccco1)N1CCN(C(=O)c2ccco2)C1=S | inactive: 15.5 µM
C[C@H]1CCC/C=C/[C@@H]2C[C@H](OC(=O)CN(C)C)C[C@H]2[C@H](O)/C=C/C(=O)O1 | active: 0.1 µM
CCC(=O)N1NC(=O)C(CC)(CC)C1=O | inactive: > 100 µM
CC(=O)/C=C1\Nc2ccc([N+](=O)[O-])cc2N\C1=C/C(C)=O | inactive: 39.8 µM

From ChEMBL document CHEMBL1201862, “PubChem BioAssay data set” (2004)
